In all, about 33,000 sequences were measured (“E-score (-0.5 to 0.5)”: median about -0.017, highest 2% from about 0.3 on). The list shows a part of the results.
molecular target: T1, Sut1 (UniProt P53032); experiment: PBM E-score (8-mer binding enrichment) (E-score (-0.5 to 0.5)); higher = stronger / more preferred TF binding; most listed sequences are background and not binding sites; conditions: protein concentration: 200 nM; construct: GST-full length
T1 sequence: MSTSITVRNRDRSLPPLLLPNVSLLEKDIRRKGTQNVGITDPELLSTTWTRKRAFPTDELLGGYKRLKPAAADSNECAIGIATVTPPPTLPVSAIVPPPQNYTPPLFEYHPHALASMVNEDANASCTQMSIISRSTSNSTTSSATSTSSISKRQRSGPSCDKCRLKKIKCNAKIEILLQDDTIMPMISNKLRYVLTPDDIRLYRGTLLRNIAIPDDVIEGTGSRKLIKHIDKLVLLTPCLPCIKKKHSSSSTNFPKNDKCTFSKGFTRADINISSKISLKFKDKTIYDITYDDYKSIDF
Outline: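 Yeast transcription factors, full-length or as DNA-binding domains, were expressed with a GST tag using PURExpress in vitro transcription/translation. At about 100-200 nM they were applied to universal all-10-mer Agilent arrays, double-stranded by primer extension on fresh or once-stripped slides. Fluorescent anti-GST detected bound protein, and masliner normalised the scans. E-scores for ungapped eight-base words, pooled with reverse complements, came from the Universal PBM Analysis Suite.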

Row | Sequence | PBM E-score
1 | CATATGAA | 0.192
2 | GTACTCGA | -0.0681
3 | TGTTACAA | 0.136
4 | GTCCACGA | -0.255
5 | AGCTAATC | 0.114
6 | TAGCCAGA | -0.079
7 | ACGCTCGC | -0.112
8 | AGAGTCTG | -0.236
9 | GGAGCTAC | 0.0015
10 | AATTGTAA | 0.115
11 | AGCCCAGC | -0.131
12 | ACAGGGAA | -0.216
13 | AAGTGCCT | -0.316
14 | ACCCTGCG | -0.108
15 | ATGTGTAC | -0.0287
16 | AGCACTAC | -0.162
17 | ATGAGCTG | -0.137
18 | CAAGCAGA | -0.00858
19 | ATAGCGCC | 0.00931
20 | ATTCGCCC | -0.188
21 | ATTAGCTA | 0.0436
22 | CAACCGGC | -0.0694
23 | TGCCCAAA | -0.16
24 | AAGGTGGG | -0.221
25 | AACCTAAC | -0.0256

Row | Sequence | PBM E-score
26 | GGCATTTA | -0.0336
27 | CCAGATAA | -0.0368
28 | CCTGGTGC | -0.273
29 | AAACGGAA | 0.331
30 | GCGGAGGA | -0.161
31 | CCTATGGA | -0.21
32 | CAACTAAC | 0.246
33 | CCAGACGC | -0.301
34 | ACGCGTGG | -0.0644
35 | CTCCTTGA | 0.0461
36 | AGTTGGAC | 0.00213
37 | ACGAGTAT | 0.102
38 | CACCAGGG | -0.385
39 | CATGTTGG | -0.171
40 | GGCAATCA | -0.0204
41 | ACCAAGCT | 0.0897
42 | AAAAAATT | 0.218
43 | AGTCCCAG | -0.199
44 | GGGCCGCA | -0.208
45 | CCGTTAAC | -0.0762
46 | AGATCAAA | 0.0287
47 | CCTGTAGA | -0.0523
48 | GCCATCTA | 0.0194
49 | AGAATAAG | 0.0907
50 | ATACCCTG | -0.137

Row | Sequence | PBM E-score
51 | ACTCCACG | -0.0414
52 | ATAATAAC | 0.0949
53 | CTGAGTAA | -0.00271
54 | CTAAGCCA | -0.271
55 | AAATGAAG | 0.0655
56 | ACAAACCA | -0.0263
57 | ACTGCTGA | -0.215
58 | AACGCGCA | -0.119
59 | CCTCTAGA | -0.0818
60 | GCGAGTAC | -0.155
61 | ATACTTGC | 0.0121
62 | CGTTGAAG | -0.0129
63 | TACGTGGA | -0.0356
64 | CCTTGTCC | -0.0909
65 | AGTCAGCA | -0.0199
66 | ACAGGGGA | -0.306
67 | AGCTTAAT | 0.126
68 | CTCTGCTC | -0.143
69 | ACGTGGGG | -0.227
70 | ATACGAGA | -0.0254
71 | GAATACTC | 0.0774
72 | GACTGGGC | -0.0754
73 | GTCGATGA | 0.00089
74 | CGATCTGC | -0.153
75 | GCGAGGTA | -0.0808

Row | Sequence | PBM E-score
76 | CCGAGGCC | -0.104
77 | ATACTTCC | -0.0104
78 | CAACTGTC | -0.146
79 | CTCCCGGC | -0.00963
80 | AAGTGGAT | -0.039
81 | CGTTGTCA | -0.188
82 | AAACGTCT | 0.0746
83 | AGGTCAGA | -0.231
84 | TTAGTCAA | -0.0484
85 | ATGCTCGG | 0.233
86 | GATCTGTA | 0.0653
87 | GTATCTGA | 0.166
88 | AGGTCATG | -0.103
89 | AGGCTTTG | -0.193
90 | CCGTGACA | -0.0915
91 | CGGGTGGC | -0.147
92 | AACCCGAA | -0.00805
93 | CTACACTC | -0.171
94 | TGCTACCA | -0.0835
95 | TAGCACGA | -0.0597
96 | ACCTCTTG | 0.0509
97 | AACCCTCT | -0.235
98 | AGCCTAGC | -0.125
99 | CCGCGTCA | -0.25
100 | AGACCCGA | 0.0572

Row | Sequence | PBM E-score
101 | ATGGCTGA | -0.161
102 | CGCCGGAC | 0.275
103 | CAATCCTG | -0.0245
104 | CACTCCGG | 0.476
105 | AATCGAAG | 0.088
106 | ATTTGCGG | 0.187
107 | CCGATGCC | 0.11
108 | TAGCGAGA | -0.00859
109 | ACACTTTG | 0.0548
110 | GAATTAGA | 0.103
111 | CGGCCTCA | 0.0675
112 | ACAACTTC | 0.0746
113 | AGCTCGTC | -0.124
114 | TTATGAAA | 0.223
115 | GCTGCAAA | -0.0116
116 | ATTAGTAG | 0.153
117 | GACTATCC | 0.0225
118 | ACACCTCT | -0.253
119 | CAGAGACA | -0.111
120 | CTCCCATC | 0.00972
121 | AACAACTT | 0.205
122 | GCCACGGA | 0.258
123 | CTCACCCA | -0.0448
124 | CCGGGTAC | -0.0553
125 | CCGCAAAA | 0.166

Row | Sequence | PBM E-score
126 | ATTAGACC | -0.183
127 | CCGATTCA | -0.0219
128 | CGGGCCCA | -0.109
129 | AGGACCCC | -0.122
130 | GTGGGAAA | -0.0448
131 | CAACGACC | 0.00753
132 | CTCATGTA | 0.0709
133 | GCAACGAC | -0.0725
134 | AATCGAAA | 0.078
135 | AAAGCGGG | -0.0823
136 | CGTGACAC | 0.0262
137 | TATAGAGA | 0.0343
138 | CGCGACTC | 0.16
139 | CCATTTCA | -0.0416
140 | AGCAGATG | -0.286
141 | AGGTTGAT | -0.0931
142 | ATACCAGC | -0.19
143 | CGATTACG | 0.0209
144 | ATATCGAC | 0.104
145 | CGTATTCA | 0.113
146 | GACCTACC | 0.0736
147 | ATTTGAAG | 0.0461
148 | CAAGAGTA | 0.014
149 | CCGACTCA | 0.0266
150 | AGTTTGTA | 0.164

Row | Sequence | PBM E-score
151 | CGATCGGA | 0.246
152 | GAGACCAC | -0.182
153 | CGCGGGGC | -0.106
154 | GCTAGCAA | 0.00518
155 | AGAAGAAA | 0.222
156 | AATATAGC | 0.0924
157 | GAGTTCGA | 0.183
158 | AATCGGGG | 0.027
159 | GCTCTCGA | -0.251
160 | ACATAGGA | -0.0566
161 | ACTAGAGC | -0.203
162 | CAGCCGCC | -0.0276
163 | GAGGTCCC | -0.162
164 | ATATTACC | 0.185
165 | TACTAGTA | 0.219
166 | AATTATCG | 0.244
167 | TGCGCACA | -0.133
168 | ACTCTTCG | -0.0971
169 | GCCCTAAA | -0.167
170 | GCCCCTTA | -0.276
171 | ACTAACAT | 0.187
172 | GAGTTTAC | 0.157

From the supplement of paper PMC3334620
